The text below walks through data of the supplement of paper PMC12632987.

Whole data set: some 4,500 sequences, median “median log2 fold change of GCK-ALFA target abundance (FLAG IP / Myc IP barcode read proportion)” near 0.078, cut for the lowest 2% near -0.6. Some of the results follow.

B1: GBRAP_128_3476 (protein)
chain: SDEEILAEAKKLAEEIVAAPVEEVPALVERYAKLLEKANPEVREAIAEILKAKIPELSEEKLEALYETLRELAKKANPEVQFYLNEIAVEAGQQILELEE
B2: GBRAP_52_6380 (protein)
chain: MVEEAKKILREAIELIMKGGPLEEVKALAKELLKYPEEVIEEAARLLAEELKGWSPEEAEKALEAALELGDILIEAGLPEEVASLIEAEIGKAAYEVLQK
B3: GBRAP_14_3856 (protein)
chain: MEELVKAVEKAAEETKEFAKELLPEHAEEIIKKIEELAKEMIKKIKEENLNKEEVAELADEAAEKLGKYIKEEGFANDEEIAALKAHLINEMLLELEKVE
B4: GBRAP_184_5066 (protein)
chain: SVAEETLEVRDLAEARAKLAALRAAVADHRGDLVVHLVLPEFDREIVALVLEGLAEIRAAGYARRVTVGLDADLTEEEADFAIELADAAGVNLTLALPEE
B5: GBRAP_160_4139 (protein)
chain: SEELEKLIKEIKEITEEAIELIEDESRENAKTIARVALGEIVLLVESNEAVSDETEDKVGKIVDEAEKKLDENEDLTNEEIKEILKKAAEEVIKIIEEEI
B6: GBRAP_160_4035 (protein)
chain: SEKLKKLKEFTKELFEEAKELVEGQSAEQRAAIAAVTGGQVILEAEELGIDNDELHDKIDAITDELVDYLLAHPDLSEEEVKALIEEARDKILKAIEESE
B7: GBRAP_160_4869 (protein)
chain: SEKLERALKIVEENEKEALDAVKEAPASQRAAIAAAIAGEAIQELIEEGLVSDELEDELMKIVDELEAKLKANADASVEEHQALIKEAFEKMKEVIKKHM
B8: GBRAP_184_5119 (protein)
chain: EVVRESVEGTDAEELIAKAEAVVAAAAAAGKRLLLHVFAKNMSVEEIIKVIEHLGKLKAAHPEVEIILDVLDEKSEEEIDKIVEAADKAGVRVVVAIKEE
B9: GBRAP_84_7003 (protein)
chain: SLEERRLAVVQEILERSSIELKALLLTYLLLKNENKEATLALNDLLKEDPEAAVEALDKAQEYYEEDKEEEAEKELLEKAKEEGEEVAELVKEYLELTKK
B10: GBRAP_128_3537 (protein)
chain: SLEEVKARAEEVMEKIKESDVETAYEITKEFLEELKSLSLEEVEAAIEVLEERLPELTAEKLEAIADAMREERPKLSPEKQNLVADLEVEALNEAEEKEE
B11: GBRAP_52_5902 (protein)
chain: SSARARELAEAVVAAIEAGDFEKAVELIVEALLTLSDEEIDEFARRLRELLAGRSLADAEAAVEAVDKAGEIALKKGADEDKVLLVEGAAEAALVEVELR
B12: GBRAP_52_6136 (protein)
chain: MEEELREKAERIIELVKEGKLEEARKLAKELAEELNDEELRLFAEEFAELVKKLPKEDLDAAAEAMDIVVDELEKVGHPEELISYFIGKATTAMYEVELK
B13: GBRAP_80_6795 (protein)
chain: AEERLKKALEEIEKLDKELAKKVKEIVEIAREMGVSTEDLADFAEAIAELLKLDKEKARELVEELKEELEELKKEGNKAEAEAAVRVYAGEALLEVEELE
B14: GBRAP_125_3140 (protein)
chain: MKEAEIELAEALAKAMGFSEEEIKELKKLAEASDPRQTIIAILLAEGFEELAELAEKVLPKLTEEELKELTELALSMKNKSKEELEKALLEKLKELEKKL
B15: GBRAP_186_5385 (protein)
chain: EEEAEKELDKKIEEYEKKGYRVIVSYIEGKSLEEIKKSIEREADAVAALAKETGEKWALIVYVKTKKEDIEEIKEYADKINKEYLAKTGVVVDVVVANSD
B16: GBRAP_157_3954 (protein)
chain: EILYETFVVTTEDTLEEIRARAREIAERIKAAGVPAVLVIVVSKEDEELAESIADYIEAVLEYETGMDIEVISEILPPTATREEAEAKAEELLEEAKKKR
B17: GBRAP_52_6213 (protein)
chain: MEEEIRKAAEEIADALIAGDEEKLIKLVKEAKEKFSLEELEEIAAETGRILAERLKGDEERIVELIDRLEEAALEAGLSEDDALALEGAAEAAAIKTLLA
B18: GBRAP_78_6629 (protein)
chain: EVEELIDKALEELNKAAKLTKKLPEEDANELLDLLVEAASHLLEAEEKGGDLKELEEAKKHLEKAIKKLKELNDERAEPLLKEVEKALKLVEKAIKLLKK
B19: GBRAP_128_3579 (protein)
chain: SVEEVRAEVRALLEAMKTADAAEQKAIATEIATRFTTLTPEERRAAAETIEELLPELSAEQLDILADALRAARPTADPEAANLLADVEVAALNEALEKEE
B20: GBRAP_150_3920 (protein)
chain: DLEELLLIAETLIDILEAILDGEYELLPHALKLAKAALEEAKEVSPELKELAEKLVKLLEEALKLKKEGGKKEEIKKKIEEALKVAREIAKLLKELIKKK
B21: GBRAP_150_3918 (protein)
chain: DLETLLTIVDTLIDILEAILDGEFDLLPHALKLAKIAVDEAKDIDEELLKLAEEMLKEIEEAKKLLEEGGPKEEILKKVKEALKIAKELEKKIKELIKEK
B22: GBRAP_139_3729 (protein)
chain: NEDEEAVEEVVRLTRESLETGGEKVREIAKLLNSLDEETREKAAEAMAEVAEEESFDKVEAFFDALIETLLTEFKDEDLADIVEAAANRALARVAVREEA
B23: GBRAP_14_3865 (protein)
chain: MEELIKAVKNTAEETKAFAAELAPEHAAEIQAKIDELAKEIIEKIKKENINKEELAKLIDEAADALGAYMAEKGYLTPEEIAAFRAHLLSTALLELEKIE
B24: GBRAP_14_3826 (protein)
chain: MEEIEKVLEEMAEELKELFKEISPEKAEELAEAVEEEIEEALEEIKETGDAEEAMEEAEEELVAEVKEILADEPEEVQATAVAAVRIETAEAEEEIDELL
B25: GBRAP_160_4181 (protein)
chain: SEKLEKAEEEIREIFAEAIEMMKGETAENRANIASVAFGEILLLLEELGLLTDELGAEIEEIEDEVVSTILANPDLTDEELAALLREAEERILEALRASS
B26: GBRAP_160_4518 (protein)
chain: MEDLERMKKLIDEAAERIKESIDEESVEDAIVVAAVEYGEVIMEAVEDESFSDEAEDAIAEIADELVADLKANKNASKEELKKIVDEHAEKLKKELEKLS
B27: GBRAP_39_5664 (protein)
chain: EEDEENELLFEYYLAKAEGYRIKEGISDEELIERGKELLKAIAKEHPEIKELVEELLKEVDKGDEDVGLAAAGIALDYLEGLPIEEIKEHLEKLLKYVKK
B28: GBRAP_14_3845 (protein)
chain: SEELRKKLLEAVEKTIEELRKIAPPEYAPRVEKFGERLRKAVEEVLKLGNLEEASKRLIEVAEETVEELFADLPEEERAALRAEAVNTLALEFEKIEEEL
B29: GBRAP_83_6870 (protein)
chain: AEKITVAAPGDRVAEATDAVIDLTKNEGYDVELEIIARPEDREKVLAGARRLAEAGVATPITVYGVGMTAEEAEALEAELRAIFAAAGVDATVEVILEEP

Sequence of GABARAP, O95166 (O95166 whole entry, the tested form may be a part): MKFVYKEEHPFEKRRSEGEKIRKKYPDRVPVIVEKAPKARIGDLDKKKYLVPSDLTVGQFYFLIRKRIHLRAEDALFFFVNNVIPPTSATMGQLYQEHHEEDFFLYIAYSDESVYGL

This experiment has as its target GABARAP, O95166. Put plainly: median log2 fold change of GCK-ALFA target abundance (FLAG IP / Myc IP barcode read proportion) (log2 ratio); each designed protein is fused to an ALFA-tag nanobody in HEK293 cells to bring the named protein to FLAG-tagged glucokinase (GCK); Myc marks an untargeted standard; higher = target protein stabilised (more abundant). The settings on record: target protein: 3xFLAG-MCP-GCK-ALFA reporter; HEK293 landing pad (RPLP). In short, it runs like this:
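HEK293 landing-pad cells received a recombined binder library fused to the ALFA nanobody and were induced with 2 μg mL^−1 doxycycline, then transfected with a plasmid encoding a FLAG-tagged target and a Myc-tagged standard. Lysates were collected after 48 h for anti-FLAG and anti-Myc immunoprecipitation, and the circular RNA barcodes were reverse transcribed, amplified and sequenced. Target abundance for each binder is the median log2 ratio of FLAG to Myc barcode read proportions. Barcodes had to reach a proportion of at least 10^−7 in both replicates, each binder needed at least 3 barcodes per replicate, a pseudocount of 10^−6 was applied, and the two replicates were pooled.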
B1: the “median log2 fold change” value was 0.306.
For B2, the “median log2 fold change” value stood at 0.227.
In the case of B3, the “median log2 fold change” value was 0.197.
Take B4: the “median log2 fold change” value is 0.0273.
For the molecule B5, the “median log2 fold change” value is -0.0507.
On to B6, for which the “median log2 fold change” value was -0.112.
Turning to B7, the “median log2 fold change” value came out at 0.257.
On to B8, for which the “median log2 fold change” value is -0.275.
For the molecule B9, the “median log2 fold change” value is -0.157.
For B10 the value was 0.0317.
For B11, the “median log2 fold change” value is -0.361.
For B12, the “median log2 fold change” value is 0.0743.
Regarding B13, the “median log2 fold change” value was 0.0713.
Regarding B14, the “median log2 fold change” value was 0.323.
For B15 the value was 0.119; for B16, -0.0866.
On to B17, for which the “median log2 fold change” value came out at 0.0147.
With B18, the “median log2 fold change” value is -0.00372.
With B19, the “median log2 fold change” value was 0.177.
For B20, the “median log2 fold change” value worked out at 0.0639.
In the case of B21, the “median log2 fold change” value came to 0.0668.
For B22 the value was 0.134; for B23, 0.279; for B24, 0.296.
With B25, the “median log2 fold change” value was -0.259.
Regarding B26, the “median log2 fold change” value is -0.272.
Take B27: the “median log2 fold change” value stood at 0.132.
B28: the “median log2 fold change” value is 0.354.
Regarding B29, the “median log2 fold change” value stood at 0.114.
